Test results as given in PMC9812374.
Like-named read-outs stand apart in the source and are kept apart here. No constants are given. Whether binding was seen depends on the method and setting. For some assays here: Binding seen in cells or lysates may run through a third protein. Some results given as binding are weak or reduced against the parent protein; the word gives no strength. For some assays here: Sequences can lack the tags named with a protein. Blank lines part the entries; values can stand above or below the molecule they belong to.

Chains of the proteins cited; added tags and fusions are not shown.
UniProt Q8S307: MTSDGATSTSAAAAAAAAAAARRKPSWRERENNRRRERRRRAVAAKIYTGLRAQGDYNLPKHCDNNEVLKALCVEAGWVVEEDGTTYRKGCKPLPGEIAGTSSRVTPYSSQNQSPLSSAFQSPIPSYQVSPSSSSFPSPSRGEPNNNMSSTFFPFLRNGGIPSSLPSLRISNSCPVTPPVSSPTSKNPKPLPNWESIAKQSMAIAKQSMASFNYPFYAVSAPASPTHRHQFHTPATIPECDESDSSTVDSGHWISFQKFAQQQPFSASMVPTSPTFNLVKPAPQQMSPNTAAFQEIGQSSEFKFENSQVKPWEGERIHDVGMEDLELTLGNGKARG

Key:
[1] = molecular target: BZR1, yeast two-hybrid fusion (Arabidopsis) (UniProt Q8S307); experiment: two-hybrid; pGBKT7 and pGADT7 fusions in yeast; growth on SD medium lacking leucine, tryptophan, adenine and histidine, 30°C (3AT in Fig. 4D)
[2] = molecular target: T1, GRF4, yeast two-hybrid fusion (Arabidopsis), P46077; experiment: as above; conditions: remark: other sources report otherwise
T1 chain: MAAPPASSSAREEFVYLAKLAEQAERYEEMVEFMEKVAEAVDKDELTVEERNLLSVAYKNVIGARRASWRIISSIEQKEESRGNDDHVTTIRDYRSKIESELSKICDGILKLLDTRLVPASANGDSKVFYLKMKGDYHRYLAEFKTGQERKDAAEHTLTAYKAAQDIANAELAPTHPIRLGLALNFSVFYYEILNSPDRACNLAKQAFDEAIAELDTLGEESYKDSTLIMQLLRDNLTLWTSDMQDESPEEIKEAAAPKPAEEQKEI

[3] = molecular target: T2, GRF4-nLUC (Arabidopsis), P46077; experiment: split reporter; luciferase complementation imaging (LCI): GRF4-nLUC + cLUC-MPKs infiltrated into N. benthamiana leaves; luminescence after D-luciferin; conditions: remark: other sources report otherwise
T2 chain: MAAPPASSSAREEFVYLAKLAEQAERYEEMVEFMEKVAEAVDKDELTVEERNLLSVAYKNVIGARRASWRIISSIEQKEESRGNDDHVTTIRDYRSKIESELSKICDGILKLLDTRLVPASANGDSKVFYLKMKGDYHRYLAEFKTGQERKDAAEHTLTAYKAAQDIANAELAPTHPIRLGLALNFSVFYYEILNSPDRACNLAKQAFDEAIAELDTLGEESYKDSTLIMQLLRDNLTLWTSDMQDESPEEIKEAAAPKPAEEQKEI

[4] = molecular target: T3, cEYFP-GRF4 (Arabidopsis), P46077; experiment: split reporter; BiFC with nEYFP and cEYFP fusions in transfected Arabidopsis mesophyll protoplasts; confocal microscopy; conditions: remark: other sources report otherwise
T3 chain: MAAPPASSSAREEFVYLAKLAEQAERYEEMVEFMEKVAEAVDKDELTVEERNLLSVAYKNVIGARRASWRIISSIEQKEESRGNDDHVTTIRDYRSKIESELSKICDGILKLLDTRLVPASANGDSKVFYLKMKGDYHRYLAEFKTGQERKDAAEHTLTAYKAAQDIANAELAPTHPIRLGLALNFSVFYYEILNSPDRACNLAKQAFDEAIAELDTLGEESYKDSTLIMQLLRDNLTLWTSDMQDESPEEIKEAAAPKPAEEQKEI

[5] = molecular target: BZR1, yeast two-hybrid fusion (Arabidopsis) (UniProt Q8S307); experiment: two-hybrid; pGBKT7 and pGADT7 fusions in yeast; growth on SD medium lacking leucine, tryptophan, adenine and histidine, 30°C (3AT in Fig. 4D); remark: listed apart in the source
[6] = molecular target: T4, GRF4, yeast two-hybrid fusion (Arabidopsis) (UniProt P46077); experiment: as above
T4 sequence: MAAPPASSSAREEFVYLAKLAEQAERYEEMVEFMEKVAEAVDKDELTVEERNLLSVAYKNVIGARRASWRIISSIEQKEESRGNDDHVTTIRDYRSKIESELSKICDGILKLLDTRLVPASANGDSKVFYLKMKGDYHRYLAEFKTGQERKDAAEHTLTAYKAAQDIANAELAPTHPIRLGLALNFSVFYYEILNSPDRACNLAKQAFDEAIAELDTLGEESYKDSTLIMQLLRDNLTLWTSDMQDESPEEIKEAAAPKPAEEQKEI

cEYFP-GRF4 (Arabidopsis) = molecular target: T5, cEYFP-GRF4 (Arabidopsis) (UniProt P46077); experiment: split reporter; BiFC with nEYFP and cEYFP fusions in transfected Arabidopsis mesophyll protoplasts; confocal microscopy
T5 sequence: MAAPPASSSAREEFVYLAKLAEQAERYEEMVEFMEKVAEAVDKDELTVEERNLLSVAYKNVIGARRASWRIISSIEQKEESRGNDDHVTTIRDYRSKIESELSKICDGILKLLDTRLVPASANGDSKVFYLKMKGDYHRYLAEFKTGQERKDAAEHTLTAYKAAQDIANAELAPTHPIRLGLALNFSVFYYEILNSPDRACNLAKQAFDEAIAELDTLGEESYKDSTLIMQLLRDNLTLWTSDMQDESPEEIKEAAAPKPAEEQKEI

GRF4-nLUC (Arabidopsis) = molecular target: T6, GRF4-nLUC (Arabidopsis) (UniProt P46077); experiment: split reporter; luciferase complementation imaging (LCI): GRF4-nLUC + cLUC-MPKs infiltrated into N. benthamiana leaves; luminescence after D-luciferin
T6 sequence: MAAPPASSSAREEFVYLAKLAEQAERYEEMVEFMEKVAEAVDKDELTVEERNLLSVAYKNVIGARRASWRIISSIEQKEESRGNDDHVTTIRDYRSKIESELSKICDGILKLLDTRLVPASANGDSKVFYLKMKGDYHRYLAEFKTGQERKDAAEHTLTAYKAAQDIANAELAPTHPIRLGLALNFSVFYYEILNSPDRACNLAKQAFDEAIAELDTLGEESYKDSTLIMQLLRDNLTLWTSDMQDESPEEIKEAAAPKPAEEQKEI

binding [1]: no binding
Molecule: MPK6, yeast two-hybrid fusion (from UniProt Q39026 1-395) (enzyme)

binding [2]: binds
B1: MPK6, yeast two-hybrid fusion, Q39026 1-395 (enzyme)
chain: MDGGSGQPAADTEMTEAPGGFPAAAPSPQMPGIENIPATLSHGGRFIQYNIFGNIFEVTAKYKPPIMPIGKGAYGIVCSAMNSETNESVAIKKIANAFDNKIDAKRTLREIKLLRHMDHENIVAIRDIIPPPLRNAFNDVYIAYELMDTDLHQIIRSNQALSEEHCQYFLYQILRGLKYIHSANVLHRDLKPSNLLLNANCDLKICDFGLARVTSESDFMTEYVVTRWYRAPELLLNSSDYTAAIDVWSVGCIFMELMDRKPLFPGRDHVHQLRLLMELIGTPSEEELEFLNENAKRYIRQLPPYPRQSITDKFPTVHPLAIDLIEKMLTFDPRRRITVLDALAHPYLNSLHDISDEPECTIPFNFDFENHALSEEQMKELIYREALAFNPEYQQ

binding [3]: binds
B2: cLUC-MPK6, Q39026 1-395 (enzyme)
chain: MDGGSGQPAADTEMTEAPGGFPAAAPSPQMPGIENIPATLSHGGRFIQYNIFGNIFEVTAKYKPPIMPIGKGAYGIVCSAMNSETNESVAIKKIANAFDNKIDAKRTLREIKLLRHMDHENIVAIRDIIPPPLRNAFNDVYIAYELMDTDLHQIIRSNQALSEEHCQYFLYQILRGLKYIHSANVLHRDLKPSNLLLNANCDLKICDFGLARVTSESDFMTEYVVTRWYRAPELLLNSSDYTAAIDVWSVGCIFMELMDRKPLFPGRDHVHQLRLLMELIGTPSEEELEFLNENAKRYIRQLPPYPRQSITDKFPTVHPLAIDLIEKMLTFDPRRRITVLDALAHPYLNSLHDISDEPECTIPFNFDFENHALSEEQMKELIYREALAFNPEYQQ

binding [4]: binds
B3: nEYFP-MPK6, Q39026 1-395 (enzyme)
chain: MDGGSGQPAADTEMTEAPGGFPAAAPSPQMPGIENIPATLSHGGRFIQYNIFGNIFEVTAKYKPPIMPIGKGAYGIVCSAMNSETNESVAIKKIANAFDNKIDAKRTLREIKLLRHMDHENIVAIRDIIPPPLRNAFNDVYIAYELMDTDLHQIIRSNQALSEEHCQYFLYQILRGLKYIHSANVLHRDLKPSNLLLNANCDLKICDFGLARVTSESDFMTEYVVTRWYRAPELLLNSSDYTAAIDVWSVGCIFMELMDRKPLFPGRDHVHQLRLLMELIGTPSEEELEFLNENAKRYIRQLPPYPRQSITDKFPTVHPLAIDLIEKMLTFDPRRRITVLDALAHPYLNSLHDISDEPECTIPFNFDFENHALSEEQMKELIYREALAFNPEYQQ

binding [2]: binds
B4: MPK3, yeast two-hybrid fusion, Q39023 1-370 (enzyme)
chain: MNTGGGQYTDFPAVETHGGQFISYDIFGSLFEITSKYRPPIIPIGRGAYGIVCSVLDTETNELVAMKKIANAFDNHMDAKRTLREIKLLRHLDHENIIAIRDVVPPPLRRQFSDVYISTELMDTDLHQIIRSNQSLSEEHCQYFLYQLLRGLKYIHSANIIHRDLKPSNLLLNANCDLKICDFGLARPTSENDFMTEYVVTRWYRAPELLLNSSDYTAAIDVWSVGCIFMELMNRKPLFPGKDHVHQMRLLTELLGTPTESDLGFTHNEDAKRYIRQLPNFPRQPLAKLFSHVNPMAIDLVDRMLTFDPNRRITVEQALNHQYLAKLHDPNDEPICQKPFSFEFEQQPLDEEQIKEMIYQEAIALNPTYG

binding [3]: binds
B5: cLUC-MPK3, Q39023 1-370 (enzyme)
chain: MNTGGGQYTDFPAVETHGGQFISYDIFGSLFEITSKYRPPIIPIGRGAYGIVCSVLDTETNELVAMKKIANAFDNHMDAKRTLREIKLLRHLDHENIIAIRDVVPPPLRRQFSDVYISTELMDTDLHQIIRSNQSLSEEHCQYFLYQLLRGLKYIHSANIIHRDLKPSNLLLNANCDLKICDFGLARPTSENDFMTEYVVTRWYRAPELLLNSSDYTAAIDVWSVGCIFMELMNRKPLFPGKDHVHQMRLLTELLGTPTESDLGFTHNEDAKRYIRQLPNFPRQPLAKLFSHVNPMAIDLVDRMLTFDPNRRITVEQALNHQYLAKLHDPNDEPICQKPFSFEFEQQPLDEEQIKEMIYQEAIALNPTYG

binding [5]: no binding
B6: MPK3, yeast two-hybrid fusion (enzyme, UniProt Q39023 1-370)
chain: MNTGGGQYTDFPAVETHGGQFISYDIFGSLFEITSKYRPPIIPIGRGAYGIVCSVLDTETNELVAMKKIANAFDNHMDAKRTLREIKLLRHLDHENIIAIRDVVPPPLRRQFSDVYISTELMDTDLHQIIRSNQSLSEEHCQYFLYQLLRGLKYIHSANIIHRDLKPSNLLLNANCDLKICDFGLARPTSENDFMTEYVVTRWYRAPELLLNSSDYTAAIDVWSVGCIFMELMNRKPLFPGKDHVHQMRLLTELLGTPTESDLGFTHNEDAKRYIRQLPNFPRQPLAKLFSHVNPMAIDLVDRMLTFDPNRRITVEQALNHQYLAKLHDPNDEPICQKPFSFEFEQQPLDEEQIKEMIYQEAIALNPTYG

binding [4]: binds
B7: nEYFP-MPK3, Q39023 1-370 (enzyme)
chain: MNTGGGQYTDFPAVETHGGQFISYDIFGSLFEITSKYRPPIIPIGRGAYGIVCSVLDTETNELVAMKKIANAFDNHMDAKRTLREIKLLRHLDHENIIAIRDVVPPPLRRQFSDVYISTELMDTDLHQIIRSNQSLSEEHCQYFLYQLLRGLKYIHSANIIHRDLKPSNLLLNANCDLKICDFGLARPTSENDFMTEYVVTRWYRAPELLLNSSDYTAAIDVWSVGCIFMELMNRKPLFPGKDHVHQMRLLTELLGTPTESDLGFTHNEDAKRYIRQLPNFPRQPLAKLFSHVNPMAIDLVDRMLTFDPNRRITVEQALNHQYLAKLHDPNDEPICQKPFSFEFEQQPLDEEQIKEMIYQEAIALNPTYG

binding [6]: binds
B8: MPK7, yeast two-hybrid fusion (enzyme, UniProt Q39027 1-368)
chain: MAMLVEPPNGIKQQGKHYYSMWQTLFEIDTKYVPIKPIGRGAYGVVCSSINRETNERVAIKKIHNVFENRVDALRTLRELKLLRHVRHENVIALKDVMLPANRSSFKDVYLVYELMDTDLHQIIKSSQSLSDDHCKYFLFQLLRGLKYLHSANILHRDLKPGNLLVNANCDLKICDFGLARTSQGNEQFMTEYVVTRWYRAPELLLCCDNYGTSIDVWSVGCIFAEILGRKPIFPGTECLNQLKLIINVVGSQQESDIRFIDNPKARRFIKSLPYSRGTHLSNLYPQANPLAIDLLQRMLVFDPTKRISVTDALLHPYMAGLFDPGSNPPAHVPISLDIDENMEEPVIREMMWNEMLYYHPEAEISNA

binding (cEYFP-GRF4 (Arabidopsis)): binds
B9: nEYFP-MPK7 (enzyme, UniProt Q39027 1-368)
chain: MAMLVEPPNGIKQQGKHYYSMWQTLFEIDTKYVPIKPIGRGAYGVVCSSINRETNERVAIKKIHNVFENRVDALRTLRELKLLRHVRHENVIALKDVMLPANRSSFKDVYLVYELMDTDLHQIIKSSQSLSDDHCKYFLFQLLRGLKYLHSANILHRDLKPGNLLVNANCDLKICDFGLARTSQGNEQFMTEYVVTRWYRAPELLLCCDNYGTSIDVWSVGCIFAEILGRKPIFPGTECLNQLKLIINVVGSQQESDIRFIDNPKARRFIKSLPYSRGTHLSNLYPQANPLAIDLLQRMLVFDPTKRISVTDALLHPYMAGLFDPGSNPPAHVPISLDIDENMEEPVIREMMWNEMLYYHPEAEISNA

binding (GRF4-nLUC (Arabidopsis)): binds
B10: cLUC-MPK7 (enzyme, UniProt Q39027 1-368)
chain: MAMLVEPPNGIKQQGKHYYSMWQTLFEIDTKYVPIKPIGRGAYGVVCSSINRETNERVAIKKIHNVFENRVDALRTLRELKLLRHVRHENVIALKDVMLPANRSSFKDVYLVYELMDTDLHQIIKSSQSLSDDHCKYFLFQLLRGLKYLHSANILHRDLKPGNLLVNANCDLKICDFGLARTSQGNEQFMTEYVVTRWYRAPELLLCCDNYGTSIDVWSVGCIFAEILGRKPIFPGTECLNQLKLIINVVGSQQESDIRFIDNPKARRFIKSLPYSRGTHLSNLYPQANPLAIDLLQRMLVFDPTKRISVTDALLHPYMAGLFDPGSNPPAHVPISLDIDENMEEPVIREMMWNEMLYYHPEAEISNA
